Where two headings read alike, the source gives them in different places.
Tests used:
[1] = tested on: CGRP-immunoreactivity in the spinal dorsal horn; conditions: for increase in the mean optical density of CGRP-immunoreactivity compared to saline-treated controls: i.t. morphine 15 μg for 10 days
Sprague Dawley rats [2] = tested on: Sprague Dawley rats
Protocol: Experiments were performed in accordance with guidelines of the Canadian Council on Animal Care using protocols approved by the University Animal Care Committee. Adult male Sprague Dawley rats (200-250 grams) (Charles River, Quebec) were housed in separate cages and maintained on a 12 hour light/12 hour dark cycle with access to food and water ad libitum.
Animals were anaesthetized with halothane (4%) and implanted with an indwelling intrathecal catheter. A small puncture was made in the atlanto-occipital membrane and a polythene catheter (PE-10; 7.5 cm long) inserted caudally so that the tip rested on the lumbar enlargement of the spinal cord. The rostral end was exteriorized to facilitate drug administration. Surgical wounds were closed with sutures and animals allowed to recover for one week. Animals showing signs of forelimb or hindlimb paralysis were excluded from experiments. Drugs were injected in a 10 μl volume (i.t.) followed by 10 μl of 0.9% saline to flush the catheter.
Response to an acute thermal nociceptive stimulus was assessed in rats using the tail-flick test. Radiant heat was applied to the dorsal surface of the tail using an analgesic meter and the time latency for removal of the tail from the stimulus was recorded. […]
Response to an acute mechanical nociceptive stimulus was assessed using the paw-pressure test. Using an air-filled inverted syringe, pressure was gradually applied to the dorsal surface of the hindpaw until a paw withdrawal response was observed and the value (mmHg) recorded. […]
Tail-flick and paw-pressure values were converted to a maximum percentage effect (M.P.E.): M.P.E.=100×[post-drug response−baseline response]/[maximum response−baseline response]. Data in the figures are expressed as mean±s.e.mean. ED50 values were determined using a non-linear regression analysis (Prism 2, GraphPad Software Inc., San Diego, Calif., USA). Statistical significance (p<0.05) was determined using a one-way analysis of variance (ANOVA) followed by a Student Newman-Keuls post hoc test for multiple comparisons between groups.

Sprague Dawley rats [3] = tested on: Sprague Dawley rats; remark: listed apart in the source
Sprague Dawley rats [4] = tested on: Sprague Dawley rats; remark: listed apart in the source
[5] = Acute Tolerance, morphine 15 μg, AM-251 3.2 μg i.t.
[6] = Chronic Tolerance, days 1-5, morphine 15 μg, AM-251 3.2 μg i.t.
[7] = Maintenance of Chronic Tolerance: Mor 15 μg D1-5, saline D6-10
[8] = Maintenance of Chronic Tolerance: Mor 15 μg D1-5, then D6-10 the labelled treatment (Mor, Mor + AM-251 3.2 μg, or AM-251 3.2 μg)
[9] = 5-day i.t. morphine 15 μg, ED50 on day 6
[10] = 10 day i.t. morphine 15 μg, ED50 on day 11
[11] = Acute Tolerance: three i.t. injections over 4 h of Mor 15 μg, AM-251 3.2 μg or both, morphine ED50 from cumulative dose-response the following day
[12] = Chronic Tolerance: daily i.t. days 1-5 of Mor 15 μg, AM-251 3.2 μg or both, morphine ED50 on day 6
[13] = Maintenance of Chronic Tolerance: Mor 15 μg days 1-5, then days 6-10 the labelled treatment (Mor 15 μg, Mor + AM-251 3.2 μg, or AM-251 3.2 μg), morphine ED50 on day 11
[14] = acute tolerance, repeated i.t. morphine 15 μg

`CN1CC[C@]23c4c5ccc(O)c4O[C@H]2[C@@H](O)C=C[C@H]3[C@H]1C5.O=S(=O)(O)O` [morphine, Morphine sulphate] was tested, and the “Deeper Laminae (mean ± s.e.mean), mean optical density of CGRP-immunoreactivity” value (“Deeper Laminae (mean ± s.e.mean)” below) [1, 5] was 81.6 ± 7.8, the “Superficial Laminae (mean ± s.e.mean), mean optical density of CGRP-immunoreactivity” value (from here on “Superficial Laminae (mean ± s.e.mean)”) [1, 5] was 146.0 ± 6.7 and the “Deeper Laminae (mean ± s.e.mean)” value [1, 6] was 89.5 ± 11.9. For the same compound, the “Superficial Laminae (mean ± s.e.mean)” value [1, 6] was 195.7 ± 12.0, the “Deeper Laminae (mean ± s.e.mean)” value [1, 7] was 84.8 ± 13.6 and the “Superficial Laminae (mean ± s.e.mean)” value [1, 7] was 141.8 ± 4.5. The “Deeper Laminae (mean ± s.e.mean)” value [1, 8] was 103.0 ± 7.5, the “Superficial Laminae (mean ± s.e.mean)” value [1, 8] was 176.1 ± 8.2 and the “effect on CGRP-immunoreactivity” value ([1]; acute i.t. morphine 15 μg over 4 hours) was “failed to have an effect”. For the same compound, the “effect on CGRP-immunoreactivity” value ([1]; deeper laminae, daily i.t. morphine for 5-days) was “no significant effect”, the “increase in the mean optical density of CGRP-immunoreactivity compared to saline-treated controls” value ([1]; deeper laminae) was 45% and the “CGRP-immunoreactivity after cessation of treatment” value ([1]; morphine stopped after day 5, only saline on days 6-10) was “return of CGRP-immunoreactivity to baseline levels”. For the same compound, the “increase in the mean optical density of CGRP-immunoreactivity” value ([1]; superficial laminae, daily i.t. morphine for 5-days) was 46%, the “increase in the mean optical density of CGRP-immunoreactivity compared to saline-treated controls” value ([1]; superficial laminae) was 38% and the “morphine ED50 value versus saline-only control” value (Sprague Dawley rats [2]; acute paradigm, drug without the other drug: single morphine injection then saline, or AM-251 3.2 μg alone) was “not statistically different”. The “antinociceptive effect on repeated daily administration” value (Sprague Dawley rats [2]; i.t. morphine 15 μg daily, by day 5) was “progressive decline of antinociceptive effect to baseline levels”, the “morphine ED50 value versus saline-only animals” value (Sprague Dawley rats [2]; morphine days 1-5 discontinued, then saline (row morphine) or AM-251 alone (row AM-251) on days 6-10) was “comparable to saline-only” and the “increase in ED50 values compared to saline-only controls” value (Sprague Dawley rats [3]; [9]) was 7.5 fold. The “increase in morphine ED50 value compared to saline-only (morphine-naïve) animals” value (Sprague Dawley rats [3]; [10]) was 9.6 fold, the “Tail-flick ED50 (μg) (mean ± s.e.mean)” value (Sprague Dawley rats [3]; [11]) was 33.7 ± 0.9 µg and the “Tail-flick ED50 (μg) (mean ± s.e.mean)” value (Sprague Dawley rats [3]; [12]) was 46.7 ± 2.1 µg. The “Tail-flick ED50 (μg) (mean ± s.e.mean)” value (Sprague Dawley rats [3]; [13]) was 53.0 ± 3.6 µg, the “increase in ED50 value as compared to saline-only controls” value (Sprague Dawley rats [3]; [14]) was 5.9 fold and the “increase in ED50 values compared to saline-only controls” value (Sprague Dawley rats [4]; [9]) was 5.9 fold. For the same compound, the “increase in morphine ED50 value compared to saline-only (morphine-naïve) animals” value (Sprague Dawley rats [4]; [10]) was 6.8 fold, the “Paw-Pressure ED50 (μg) (mean ± s.e.mean)” value (Sprague Dawley rats [4]; Acute Tolerance: Mor 15 μg once, then saline only, morphine ED50 the following day) was 8.9 ± 0.4 µg and the “Paw-Pressure ED50 (μg) (mean ± s.e.mean)” value (Sprague Dawley rats [4]; [11]) was 35.2 ± 3.3 µg. For the same compound, the “Paw-Pressure ED50 (μg) (mean ± s.e.mean)” value (Sprague Dawley rats [4]; [12]) was 59.9 ± 4.0 µg, the “Paw-Pressure ED50 (μg) (mean ± s.e.mean)” value (Sprague Dawley rats [4]; Maintenance of Chronic Tolerance: Mor 15 μg days 1-5, saline days 6-10, morphine ED50 on day 11) was 10.7 ± 2.2 µg and the “Paw-Pressure ED50 (μg) (mean ± s.e.mean)” value (Sprague Dawley rats [4]; [13]) was 49.8 ± 6.5 µg. For the same compound, the “increase in ED50 value as compared to saline-only controls” value (Sprague Dawley rats [4]; [14]) was 5.6 fold.

From US20080188508A1, “Methods and Therapies for Potentiating a Therapeutic Action of an Opioid Receptor Agonist and Inhibiting and/or Reversing Tolerance to Opioid Receptor Agonists” (priority 2007, published 2008)
